Experimental data published in PubChem BioAssay AID651813 (National Center for Advancing Translational Sciences (NCATS), 2012).
Screen size: about 2,100 compounds; about 1,100 (52%) were called active. The set was probably picked from earlier hits. The inconclusive results got no clear call from the source; some entries with a clear call stand among them for comparison. Calls follow the shape of the dose curve; as a rule, active = well fitted inhibition curve with a large enough effect; inconclusive = small, poorly fitted or top-dose-only effect; inactive = no such curve, though single readings can be large or run the other way. Potencies of inconclusive entries are left out as doubtful fits.
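Also: hits raise yellow fluorescence by blocking Vif-driven A3G-eYFP degradation; nearly all actives have a fitted effect of over 70% in size.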
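For max response in this document: max response given as percent of control signal.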
Potency is read from the fitted curve at half-maximal effect; tags tell the direction and shape of the fitted curve.

What follows are compounds tested against DNA dC->dU-editing enzyme APOBEC-3G (Homo sapiens) (UniProt Q9HC16) (assay: qHTS for inhibitors of Vif-A3G interactions: Cherry picks counterscreen). Settings: HeLa A3G-eYFP + Vif (tagged APOBEC3G with the HIV-1 protein that degrades it), eYFP fluorescence, 24 h.
Chain of UniProt Q9HC16 (Q9HC16 whole entry, looked up): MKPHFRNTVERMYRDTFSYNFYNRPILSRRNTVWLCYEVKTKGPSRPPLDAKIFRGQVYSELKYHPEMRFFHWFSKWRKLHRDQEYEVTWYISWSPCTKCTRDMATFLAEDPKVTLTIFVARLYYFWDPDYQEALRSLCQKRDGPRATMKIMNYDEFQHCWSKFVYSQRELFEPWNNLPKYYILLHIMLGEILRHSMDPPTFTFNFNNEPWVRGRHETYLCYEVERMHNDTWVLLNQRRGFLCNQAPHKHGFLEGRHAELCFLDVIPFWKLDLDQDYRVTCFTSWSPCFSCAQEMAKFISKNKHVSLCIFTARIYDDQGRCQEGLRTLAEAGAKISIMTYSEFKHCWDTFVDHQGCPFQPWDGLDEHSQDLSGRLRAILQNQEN
How it was run: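 Readout is eYFP fluorescence (488 nm excitation, 500-530 nm emission) measured on Acumen Explorer after 24 h compound exposure, several concentrations, at 37 deg C. Cells: HeLa stably co-expressing Vif and C-terminally eYFP-tagged A3G; MG132 positive control.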
For `O=C(Nc1ncccn1)c1ccc([N+](=O)[O-])o1`, the Potency was inconclusive [inhibitor, single point].
In the case of `O=C(NC(=S)N1CCc2ccccc21)c1ccco1`, the max response is reported as inactive: 4.59%.
For `Cc1cc([N+](=O)[O-])ccc1-c1ccc(/C=N/NC(=O)c2ccc(Br)o2)o1`, the Potency was active: 20.6 µM.
For `Cc1ccc2c(c1)C=CC(C#N)N2C(=O)c1ccccc1` (configuration not stated), the Potency was active: 4.98 µM.
In the case of `O=C1C(Cl)=C(NCCc2ccccc2)C(=O)c2ccccc21`, the Potency is reported as inconclusive [inhibitor, single point].
In the case of `O=C(Oc1ccc(Cl)c2cccnc12)c1ccco1`, the max response is reported as inactive: 17.4%.
In the case of `Cc1ccc(NC(=O)CSc2ccccc2NC(=O)c2cccc(Cl)c2)cc1Cl`, the max response is reported as inactive: 5.07%.
`N#Cc1sc2nc(-c3cccs3)cc(-c3ccc(Cl)cc3)c2c1N` was tested, and the Potency was inconclusive [inhibitor, partial curve, poor fit].
In the case of `O=c1[nH]c(/C=C/c2cccc3ccccc23)nc2ccccc12`, the Potency is reported as inconclusive [inhibitor, single point].
With `O=C/C(=C\Nc1ccccn1)c1nc2ccccc2o1` the Potency was inconclusive [inhibitor, single point].
`O=C(COc1ccccc1)NC(=S)Nc1cccc2c(O)cccc12` was tested, and the max response was inactive: -0.841%.
With `C[n+]1ccc(/C=C/c2cc[n+](C)c3ccccc23)c2ccccc21` the Potency was inconclusive [inhibitor, single point].
For `COc1cc2ccccc2cc1C(=O)N/N=C/c1cccnc1`, the Potency was inconclusive [inhibitor, partial curve].
`CC(C)COc1ccc(C(=O)N/C(=C/c2cccc([N+](=O)[O-])c2)C(=O)O)cc1` was tested, and the max response was inactive: 13.2%.
In the case of `COc1cc(/C=C(\C#N)c2nc3ccccc3[nH]2)ccc1Oc1ccc([N+](=O)[O-])cn1`, the Potency is reported as inconclusive [inhibitor, single point].
With `Nc1c(C(=O)O)sc2nc(-c3ccc(F)cc3)cc(-c3ccccc3)c12` the Potency was inconclusive [inhibitor, single point].
For `CN1C2CCC1/C(=C\c1ccccc1)C(=O)/C2=C\c1ccccc1`, the Potency was inconclusive [inhibitor, single point].
With `O=C(O)c1ccc(N/N=C/C(Br)=C/c2ccccc2)cc1` the max response was inactive: 24.8%.
`COc1ccc(NC(=O)CSc2nc3c(oc4ccccc43)c(=O)n2Cc2ccco2)cc1Cl` was tested, and the Potency was inconclusive [inhibitor, single point].
`Cc1cc(C)cc(NC(=O)Cn2cc(C(=O)C3CCCCC3)c3ccccc32)c1` was tested, and the Potency was inconclusive [inhibitor, single point].
In the case of `CCN1/C(=C/c2cccc[n+]2C)Sc2ccc(OC)cc21`, the Potency is reported as active: 20.6 µM.
For `COc1ccc(NC(=O)c2sc3nc(-c4ccc(OC)cc4)cc(C(F)(F)F)c3c2N)cc1`, the Potency was active: 1.3 µM.
With `O=C(Nc1ccc(N2CCN(C(=O)c3ccccc3)CC2)cc1)c1ccc([N+](=O)[O-])o1` the Potency was inconclusive [inhibitor, single point].
`COc1ccc(N(C(=O)C(C)C)S(=O)(=O)c2cccs2)cc1` was tested, and the Potency was inconclusive [inhibitor, single point].
In the case of `COc1ccc(/C=C2\C(=O)NC(=S)N2C(=O)c2ccc(F)cc2)cc1`, the Potency is reported as inconclusive [inhibitor, single point].
In the case of `Oc1[nH]c2ccccc2c1N=Nc1c(F)c(F)c(F)c(F)c1F`, the Potency is reported as inconclusive [inhibitor, single point].
With `CN1/C(=C\C=C(/C#N)C(=O)Nc2ccc(Cl)cc2)C(C)(C)c2ccccc21` the Potency was inconclusive [inhibitor, single point].
`Cc1ccc(NC(=O)c2ccc(NCCCN3CCC(C)CC3)c([N+](=O)[O-])c2)cc1F` was tested, and the Potency was inconclusive [inhibitor, single point].
`CCCOc1ccc2cc(C(=O)NCc3ccccc3)c(=O)oc2c1` was tested, and the max response was inactive: -5.24%.
`O=C(NC1CCCC(C(F)(F)F)C1)c1ccc([N+](=O)[O-])o1` (configuration not stated) was tested, and the Potency was inconclusive [inhibitor, single point].
For `CC(=Nc1ccccc1)C1=C(O)C(Cc2ccccc2)NC1=O` (configuration not stated), the Potency was active: 0.396 µM.
With `O=C(NN=Cc1c(O)ccc2ccccc12)c1ccc2c(c1)OCO2` the max response was inactive: 1.53%.
With `O=C(NN(c1ccccc1)c1ccccc1)c1ccc([N+](=O)[O-])o1` the Potency was inconclusive [inhibitor, single point].
For `FC(F)(F)c1ccccc1NC(=S)NN=C1CCCCCC1`, the max response was inactive: 19.2%.
In the case of `COc1cc(C=C2C(=O)c3ccccc3C2=O)cc(OC)c1OC`, the max response is reported as inactive: -6.19%.
In the case of `CCOc1cc(C#N)c(NC(=O)c2cccnc2)cc1OCC`, the Potency is reported as active: 7.04 µM.
With `Cc1sc2nc(SCC(=O)N3CCOCC3)[nH]c(=O)c2c1-c1ccccc1` the max response was inactive: -5.17%.
With `CCc1ccc(/C=N/NC(=O)c2cc(-c3ccncc3)nc3ccccc23)s1` the Potency was active: 3.53 µM.
For `O=C(Cn1ncc(Cl)c(Cl)c1=O)Nc1ccc2c(c1)OCO2`, the Potency was inconclusive [inhibitor, single point].
In the case of `CCOC(=O)Cc1csc(NC(=O)c2sc3nc4c(C)cc(C)cc4cc3c2N)n1`, the Potency is reported as active: 20.6 µM.
`CC(=O)Nc1ccc2nc(NC(=O)c3ccc([N+](=O)[O-])o3)sc2c1` was tested, and the Potency was inconclusive [inhibitor, single point].
`Cc1cc[n+](C2CCCCC2)cc1` was tested, and the Potency was inconclusive [inhibitor, single point].
For `C[n+]1cc(C(=O)N2CCCCC2)ccc1/C=C/c1c[nH]c2ccccc12`, the Potency was active: 17.7 µM.
`C=CCN1C(=O)c2cccc3c(N4CCCCC4)ccc(c23)C1=O` was tested, and the Potency was active: 18.4 µM.
`Cc1cnc(NC(=O)CC(C)c2ccccc2)s1` (configuration not stated) was tested, and the Potency was active: 5.59 µM.
With `c1ccc2c(c1)nc(N1CCOCC1)c1nnnn12` the max response was inactive: -18.6%.
In the case of `CN1C/C(=C\c2ccc(N3CCOCC3)cc2)C(=O)/C(=C/c2ccc(N3CCOCC3)cc2)C1`, the Potency is reported as inconclusive [inhibitor, single point].
